Experimental data as given in PMC3746198.
Results are given in words; binding and its absence hold for the method and conditions named. For some of these results: In cells and extracts the contact can be indirect. Some results given as binding are weak or reduced against the parent protein; the word gives no strength. For some of these results: Tags and fused reporters may be left off the sequences shown.

Protein sequences, listed by entry. Tags and fused reporters are not part of them. Lines headed by an entry give the natural chain unless they say otherwise; changes in a name come on top. Chains listed by the source or under a name are the forms on record and can include a tag or linker.
UniProt P48432: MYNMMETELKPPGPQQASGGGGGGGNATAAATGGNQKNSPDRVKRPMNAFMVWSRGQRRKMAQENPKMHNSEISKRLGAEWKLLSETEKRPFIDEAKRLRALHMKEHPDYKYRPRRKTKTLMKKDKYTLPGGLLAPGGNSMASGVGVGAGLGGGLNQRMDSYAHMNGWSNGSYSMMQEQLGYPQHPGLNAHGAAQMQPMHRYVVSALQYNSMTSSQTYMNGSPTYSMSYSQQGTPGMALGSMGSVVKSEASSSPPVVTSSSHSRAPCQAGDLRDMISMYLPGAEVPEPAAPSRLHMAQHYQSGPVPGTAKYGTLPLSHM
(Flag)3-Sox2 Δ205–233 (P48432, form named): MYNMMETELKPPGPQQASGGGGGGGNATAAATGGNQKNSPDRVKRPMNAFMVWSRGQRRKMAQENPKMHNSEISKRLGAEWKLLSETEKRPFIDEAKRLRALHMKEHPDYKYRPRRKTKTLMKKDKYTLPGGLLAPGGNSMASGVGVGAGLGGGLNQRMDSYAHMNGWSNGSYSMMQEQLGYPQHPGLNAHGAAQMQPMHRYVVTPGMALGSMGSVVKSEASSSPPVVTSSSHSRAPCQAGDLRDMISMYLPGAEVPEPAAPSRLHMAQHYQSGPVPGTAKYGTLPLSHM
UniProt Q8BX22: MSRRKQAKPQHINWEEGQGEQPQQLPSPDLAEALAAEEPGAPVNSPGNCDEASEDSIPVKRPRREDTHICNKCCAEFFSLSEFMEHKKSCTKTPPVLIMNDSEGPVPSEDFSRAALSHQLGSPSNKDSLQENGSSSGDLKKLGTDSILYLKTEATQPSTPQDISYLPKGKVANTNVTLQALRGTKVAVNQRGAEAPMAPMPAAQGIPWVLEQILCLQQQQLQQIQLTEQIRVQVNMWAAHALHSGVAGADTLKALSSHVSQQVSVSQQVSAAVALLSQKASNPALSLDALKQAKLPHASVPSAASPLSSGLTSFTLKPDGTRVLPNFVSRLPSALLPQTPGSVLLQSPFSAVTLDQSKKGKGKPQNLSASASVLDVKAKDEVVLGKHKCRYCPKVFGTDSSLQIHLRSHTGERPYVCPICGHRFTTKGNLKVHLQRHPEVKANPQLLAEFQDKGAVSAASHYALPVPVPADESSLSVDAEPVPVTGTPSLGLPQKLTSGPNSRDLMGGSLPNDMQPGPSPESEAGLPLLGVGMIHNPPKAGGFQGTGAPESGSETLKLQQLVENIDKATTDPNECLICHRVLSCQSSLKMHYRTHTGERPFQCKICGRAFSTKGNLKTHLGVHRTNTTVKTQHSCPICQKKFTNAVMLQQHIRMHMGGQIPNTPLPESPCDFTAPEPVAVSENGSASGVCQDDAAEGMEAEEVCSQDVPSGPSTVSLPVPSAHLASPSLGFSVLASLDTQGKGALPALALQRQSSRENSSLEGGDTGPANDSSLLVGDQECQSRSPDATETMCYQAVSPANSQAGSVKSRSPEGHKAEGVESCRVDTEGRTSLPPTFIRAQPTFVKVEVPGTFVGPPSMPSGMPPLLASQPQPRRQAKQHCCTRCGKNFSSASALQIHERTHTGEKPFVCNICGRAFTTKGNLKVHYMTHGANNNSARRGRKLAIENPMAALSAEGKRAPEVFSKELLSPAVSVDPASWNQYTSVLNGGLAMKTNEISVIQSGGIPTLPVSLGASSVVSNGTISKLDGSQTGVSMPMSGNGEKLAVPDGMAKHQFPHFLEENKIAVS
UniProt Q9R190: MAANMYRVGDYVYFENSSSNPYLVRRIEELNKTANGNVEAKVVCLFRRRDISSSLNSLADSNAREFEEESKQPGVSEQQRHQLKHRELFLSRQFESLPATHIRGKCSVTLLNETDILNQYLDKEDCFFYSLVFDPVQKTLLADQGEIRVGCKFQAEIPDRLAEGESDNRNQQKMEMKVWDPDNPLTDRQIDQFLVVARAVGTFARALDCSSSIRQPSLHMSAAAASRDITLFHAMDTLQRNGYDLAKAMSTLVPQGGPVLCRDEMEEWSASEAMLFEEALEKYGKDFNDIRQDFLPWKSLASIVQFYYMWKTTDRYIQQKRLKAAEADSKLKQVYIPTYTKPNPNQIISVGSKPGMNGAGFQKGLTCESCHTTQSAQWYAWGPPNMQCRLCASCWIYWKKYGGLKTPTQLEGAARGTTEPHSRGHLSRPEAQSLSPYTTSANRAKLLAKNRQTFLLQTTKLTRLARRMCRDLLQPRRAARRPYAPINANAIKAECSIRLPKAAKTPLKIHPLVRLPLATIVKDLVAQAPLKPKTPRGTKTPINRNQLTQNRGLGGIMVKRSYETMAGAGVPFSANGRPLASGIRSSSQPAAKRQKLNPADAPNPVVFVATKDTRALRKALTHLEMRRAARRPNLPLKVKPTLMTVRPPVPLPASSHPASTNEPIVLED

T1: (HA)3Nanog (UniProt Q80Z64)
T1 sequence: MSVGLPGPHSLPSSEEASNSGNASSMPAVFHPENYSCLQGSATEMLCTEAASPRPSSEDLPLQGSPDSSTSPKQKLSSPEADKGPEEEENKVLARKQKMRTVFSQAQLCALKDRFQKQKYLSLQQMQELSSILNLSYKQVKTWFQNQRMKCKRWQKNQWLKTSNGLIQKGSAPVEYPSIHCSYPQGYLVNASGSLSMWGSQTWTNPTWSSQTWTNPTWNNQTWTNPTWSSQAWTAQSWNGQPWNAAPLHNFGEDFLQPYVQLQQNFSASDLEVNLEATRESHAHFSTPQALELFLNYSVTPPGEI

T2: (His)6-tagged Nanog (UniProt Q80Z64)
T2 sequence: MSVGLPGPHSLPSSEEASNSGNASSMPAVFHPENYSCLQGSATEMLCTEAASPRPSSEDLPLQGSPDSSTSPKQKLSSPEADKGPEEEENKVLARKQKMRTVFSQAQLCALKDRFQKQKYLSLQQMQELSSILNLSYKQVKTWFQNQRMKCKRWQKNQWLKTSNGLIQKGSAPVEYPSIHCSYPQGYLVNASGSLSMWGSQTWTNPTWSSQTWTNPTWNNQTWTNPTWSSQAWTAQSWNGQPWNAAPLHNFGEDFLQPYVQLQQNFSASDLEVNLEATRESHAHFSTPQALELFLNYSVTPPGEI

T3: Nanog (endogenous) (mouse (endogenous in E14Tg2a ES cells)) (UniProt Q80Z64)
T3 sequence: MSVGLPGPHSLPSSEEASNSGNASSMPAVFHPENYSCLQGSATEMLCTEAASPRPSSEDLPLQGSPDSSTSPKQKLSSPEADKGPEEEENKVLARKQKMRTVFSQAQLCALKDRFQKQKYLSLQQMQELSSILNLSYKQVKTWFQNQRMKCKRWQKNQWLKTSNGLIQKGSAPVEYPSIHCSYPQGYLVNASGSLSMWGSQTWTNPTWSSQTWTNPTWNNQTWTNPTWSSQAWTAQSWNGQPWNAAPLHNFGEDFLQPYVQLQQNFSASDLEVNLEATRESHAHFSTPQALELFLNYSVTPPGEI

T4: (FLAG)3Nanog (UniProt Q80Z64)
T4 sequence: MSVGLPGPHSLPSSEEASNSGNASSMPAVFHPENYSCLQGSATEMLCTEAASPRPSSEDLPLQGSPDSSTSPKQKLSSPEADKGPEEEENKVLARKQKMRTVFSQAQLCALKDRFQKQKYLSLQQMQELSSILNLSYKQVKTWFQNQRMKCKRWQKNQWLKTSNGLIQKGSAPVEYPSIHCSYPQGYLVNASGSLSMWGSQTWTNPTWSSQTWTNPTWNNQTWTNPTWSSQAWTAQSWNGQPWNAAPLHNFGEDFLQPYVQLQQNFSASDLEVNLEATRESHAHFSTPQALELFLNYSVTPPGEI

B1: Nanog (endogenous) (protein, UniProt Q80Z64 1-305)
chain: MSVGLPGPHSLPSSEEASNSGNASSMPAVFHPENYSCLQGSATEMLCTEAASPRPSSEDLPLQGSPDSSTSPKQKLSSPEADKGPEEEENKVLARKQKMRTVFSQAQLCALKDRFQKQKYLSLQQMQELSSILNLSYKQVKTWFQNQRMKCKRWQKNQWLKTSNGLIQKGSAPVEYPSIHCSYPQGYLVNASGSLSMWGSQTWTNPTWSSQTWTNPTWNNQTWTNPTWSSQAWTAQSWNGQPWNAAPLHNFGEDFLQPYVQLQQNFSASDLEVNLEATRESHAHFSTPQALELFLNYSVTPPGEI

What was measured:
(HA)3Nanog = target: T1, (HA)3Nanog; assay: co-IP; E14/T cells co-transfected with (HA)3-Nanog or mutants and (Flag)3Sox2 or mutants; nuclear extract (treated with benzonase); HA antibody 4°C 3 h, Protein G; immunoblot with anti-FLAG
(His)6-tagged Nanog [1] = target: T2, (His)6-tagged Nanog; assay: co-purification on ion exchange; the Nanog/Sox2 eluate of the nickel resin (proteins co-expressed in E. coli) on a CM Sepharose FF column at pH 7.6, gradient 0–1 M NaCl; Coomassie gel of fractions
(His)6-tagged Nanog [2] = target: T2, (His)6-tagged Nanog; assay: pull-down; (His)6-Nanog and unmodified Sox2 co-expressed in E. coli BL21(DE3) (pET Duet); lysate in 25 mM Hepes pH 7.6, 1 M NaCl, 5 mM imidazole on nickel resin, eluted with imidazole; Coomassie gel, immunoblot and N-terminal sequencing
[3] = target: T3, Nanog (endogenous) (mouse (endogenous in E14Tg2a ES cells)); assay: co-IP; endogenous proteins, E14Tg2a nuclear extract; immunoprecipitation with anti-Sox2 or with anti-Nanog antibody, immunoblot for the other protein
(FLAG)3Nanog = target: T4, (FLAG)3Nanog; assay: co-IP; nuclear extract of E14Tg2a F-Nanog cells with Flag antibody and Protein G (mouse IgG control), or of RCNβH-B(t):F-Nanog cells with FLAG agarose (parental cells as control); 4°C, 3 h; washed in 20 mM Hepes pH 7.6, 100 mM KCl, 0.2% NP-40; immunoblot
[4] = target: Sox2 (endogenous) (mouse (endogenous in E14Tg2a ES cells)) (UniProt P48432); assay: co-IP; endogenous proteins, E14Tg2a nuclear extract; immunoprecipitation with anti-Sox2 or with anti-Nanog antibody, immunoblot for the other protein

Molecule | binding ((HA)3Nanog) | further results
(Flag)3Sox2 (from UniProt P48432 1-319) | binds | 
(Flag)3-Sox2 1-226 (from UniProt P48432 1-226) (domain or fragment) | binds | 
unmodified Sox2 (expressed in E. coli) (from UniProt P48432 1-319) |  | binding ((His)6-tagged Nanog [1]): binds; binding ((His)6-tagged Nanog [2]): binds
Sox2 (endogenous) (from UniProt P48432 1-319) |  | binding [3]: binds; binding ((FLAG)3Nanog): binds
(Flag)3-Sox2 Δ205–233 (from UniProt P48432 1-319) | no binding | 
(Flag)3-Sox2 1-204 (from UniProt P48432 1-204) (domain or fragment) | no binding | 
(Flag)3-Sox2 ΔN120 (from UniProt P48432 121-319) (domain or fragment) | binds | 
Sall4 (from UniProt Q8BX22 1-1067) |  | binding ((FLAG)3Nanog): binds
(Flag)3-Sox2 1-218 (from UniProt P48432 1-218) (domain or fragment) | binds | 
NuRD subunit Mta2 (from UniProt Q9R190 1-668) |  | binding ((FLAG)3Nanog): binds
(Flag)3-Sox2 1-233 (from UniProt P48432 1-233) (domain or fragment) | binds | 
(Flag)3-Sox2 1-212 (from UniProt P48432 1-212) (domain or fragment) | no binding | 
(Flag)3-Sox2 1-263 (from UniProt P48432 1-263) (domain or fragment) | binds | 
B1 |  | binding [4]: binds
